# In a collection of fitness landscapes (doi:10.1126/science.1257360):
# Some of the results follow.
# B1: PhoQ; a variant is named by its letters at X, in order, P23837 (parent)
# chain: MKKLLRLFFPLSLRVRFLLATAAVVLVLSLAYGMVALIGYSVSFDKTTFRLLRGESNLFYTLAKWENNKLHVELPENIDKQSPTMTLIYDENGQLLWAQRDVPWLMKMIQPDWLKSNGFHEIEADVNDTSLLLSGDHSIQQQLQEVREDDDDAEMTHSVAVNVYPATSRMPKLTIVVVDTIPVELKSSYMVWSWFIYVLSANLLLVIPLLWVAAWWSLRPIEALAKEVRELEEHNRELLNPATTRELTSLVRNLNRLLKSERERYDKYRTTLTDLTHSLKTPLXXLQXXLRSLRSEKMSVSDAEPVMLEQISRISQQIGYYLHRASMRGGTLLSRELHPVAPLLDNLTSALNKVYQRKGVNISLDISPEISFVGEQNDFVEVMGNVLDNACKYCLEFVEISARQTDEHLYIVVEDDGPGIPLSKREVIFDRGQRVDTLRPGQGVGLAVAREITEQYEGKIVAGESMLGGARMEVIFGRQHSAPKDE
# Variants of: B1
# Test: enrichment ratio after two sorts for PhoP signalling (ratio (wild type AVST 3.29)); higher = more functional
# Details: with PhoP (E. coli)
row,Variant,enrichment ratio
1,WLHA,≤ 0.25
2,AKWR,≤ 0.25
3,FAVM,5.58
4,EGNL,≤ 0.25
5,ARPP,≤ 0.25
6,FCDN,≤ 0.25
7,HVTR,≤ 0.25
8,VDDS,≤ 0.25
9,DPVW,≤ 0.25
10,IRRW,≤ 0.25
11,WVHS,≤ 0.25
12,PPHR,≤ 0.25
13,YNVY,≤ 0.25
14,CVSL,≤ 0.25
15,RDHM,≤ 0.25
16,NPVY,≤ 0.25
17,NNTT,≤ 0.25
18,MERE,≤ 0.25
19,STAA,4.26
20,GNGM,4.88
21,NYKR,≤ 0.25
22,LTQT,≤ 0.25
23,EPWF,≤ 0.25
24,PFYR,1.49

row,Variant,enrichment ratio
1,HLHS,≤ 0.25
2,MFGK,≤ 0.25
3,DCNA,≤ 0.25
4,DFAD,≤ 0.25
5,DCQQ,≤ 0.25
6,KYWA,≤ 0.25
7,DFDT,≤ 0.25
8,SMKQ,≤ 0.25
9,FLND,≤ 0.25
10,WEFA,≤ 0.25
11,LPDS,≤ 0.25
12,YQEG,≤ 0.25
13,HYNK,≤ 0.25
14,GEDV,≤ 0.25
15,HHYM,≤ 0.25
16,GDFC,≤ 0.25
17,MYCK,≤ 0.25
18,TMMC,5.99
19,ARQG,≤ 0.25
20,HWLD,≤ 0.25
21,KFHA,≤ 0.25
22,WDPY,≤ 0.25
23,RGNN,≤ 0.25
24,MAQP,≤ 0.25

row,Variant,enrichment ratio
1,ANSI,18
2,VKFL,≤ 0.25
3,SHDI,≤ 0.25
4,IWEQ,≤ 0.25
5,KRTN,≤ 0.25
6,RGDK,≤ 0.25
7,NNGT,≤ 0.25
8,VWYA,≤ 0.25
9,MKGF,≤ 0.25
10,LWPS,≤ 0.25
11,TVNG,4.22
12,NNVQ,≤ 0.25
13,INIT,≤ 0.25
14,VFHT,≤ 0.25
15,LCLA,≤ 0.25
16,SNCV,14.2
17,HEFI,≤ 0.25
18,KEMP,≤ 0.25
19,HAAH,≤ 0.25
20,PMKH,≤ 0.25
21,PQYS,≤ 0.25
22,VPHY,≤ 0.25
23,PIDK,≤ 0.25
24,GGMC,≤ 0.25

row,Variant,enrichment ratio
1,MGVC,≤ 0.25
2,VRDG,≤ 0.25
3,MATW,≤ 0.25
4,IEGW,≤ 0.25
5,APGT,≤ 0.25
6,SPIT,≤ 0.25
7,NECF,≤ 0.25
8,IEKT,≤ 0.25
9,NVAI,≤ 0.25
10,KHVN,≤ 0.25
11,RWME,≤ 0.25
12,MSWV,10.2
13,QTIL,≤ 0.25
14,VIFL,≤ 0.25
15,FCSR,≤ 0.25
16,MHRN,≤ 0.25
17,QDPG,≤ 0.25
18,MSDQ,≤ 0.25
19,RLRQ,≤ 0.25
20,ETYV,≤ 0.25
21,LNPL,≤ 0.25
22,IYVC,≤ 0.25
23,AMLC,6.08
24,LCHP,≤ 0.25

row,Variant,enrichment ratio
1,HMKK,≤ 0.25
2,VRMV,≤ 0.25
3,MAFH,0.541
4,LQHI,≤ 0.25
5,QLVI,≤ 0.25
6,VHFW,≤ 0.25
7,IFTM,≤ 0.25
8,HSNN,≤ 0.25
9,NKKA,≤ 0.25
10,IPVD,≤ 0.25
11,NPMP,≤ 0.25
12,FFGV,≤ 0.25
13,VETT,≤ 0.25
14,AKST,6.32
15,DAWW,≤ 0.25
16,LTCE,≤ 0.25
17,KTDN,≤ 0.25
18,VFRL,≤ 0.25
19,LYIS,≤ 0.25
20,DTTG,≤ 0.25
21,RYCK,≤ 0.25
22,AIVC,19.1
23,HENM,≤ 0.25
24,NYFY,≤ 0.25

row,Variant,enrichment ratio
1,TKTD,≤ 0.25
2,HVYD,≤ 0.25
3,PAEC,≤ 0.25
4,SGKP,≤ 0.25
5,PELW,≤ 0.25
6,PECV,≤ 0.25
7,QWIG,≤ 0.25
8,NPWT,≤ 0.25
9,FYIM,≤ 0.25
10,CRDY,≤ 0.25
11,EDGS,≤ 0.25
12,WMYF,≤ 0.25
13,IAID,≤ 0.25
14,EFQH,≤ 0.25
15,YLHE,≤ 0.25
16,FWQI,≤ 0.25
17,PSVE,≤ 0.25
18,KFLR,≤ 0.25
19,RKHV,≤ 0.25
20,LMGC,≤ 0.25
21,DNWP,≤ 0.25
22,KFFY,≤ 0.25
23,KQQV,≤ 0.25
24,GLEY,≤ 0.25

row,Variant,enrichment ratio
1,PTWN,≤ 0.25
2,DVYN,≤ 0.25
3,IQCE,≤ 0.25
4,TVSH,15.9
5,LYDN,≤ 0.25
6,KCYS,≤ 0.25
7,FYNR,≤ 0.25
8,MSLF,1.86
9,PRSL,≤ 0.25
10,TADA,2.37
11,WVYM,≤ 0.25
12,YSTL,4.42
13,LTIL,≤ 0.25
14,KPTF,≤ 0.25
15,RILV,≤ 0.25
16,SYCS,≤ 0.25
17,VCSL,5.45
18,RLYN,≤ 0.25
19,TQER,≤ 0.25
20,LYTI,≤ 0.25
21,WVRA,≤ 0.25
22,IMPM,≤ 0.25
23,TRER,≤ 0.25
24,WMLF,≤ 0.25

row,Variant,enrichment ratio
1,LKEE,≤ 0.25
2,HWAS,≤ 0.25
3,FILK,0.268
4,RNMG,≤ 0.25
5,MNGD,≤ 0.25
6,PFHD,≤ 0.25
7,RGFV,≤ 0.25
8,RYMI,≤ 0.25
9,SWII,≤ 0.25
10,NSHI,≤ 0.25
11,YHAH,≤ 0.25
12,QFMA,≤ 0.25
13,PMKV,≤ 0.25
14,NGLQ,≤ 0.25
15,AAEP,≤ 0.25
16,IDMQ,≤ 0.25
17,EKDG,≤ 0.25
18,WIAG,≤ 0.25
19,NFCT,≤ 0.25
20,CRTL,≤ 0.25
21,PGCH,≤ 0.25
22,KLDT,≤ 0.25
23,TRCF,1.17
24,TGVR,≤ 0.25

row,Variant,enrichment ratio
1,RQMA,≤ 0.25
2,PPVN,≤ 0.25
3,FEGN,≤ 0.25
4,QRAI,≤ 0.25
5,VNKR,≤ 0.25
6,LHRV,≤ 0.25
7,LMFP,≤ 0.25
8,FVTD,≤ 0.25
9,IPMY,≤ 0.25
10,DRQN,≤ 0.25
11,QPGP,≤ 0.25
12,SDWY,≤ 0.25
13,VYAL,≤ 0.25
14,QGRA,≤ 0.25
15,IQVN,≤ 0.25
16,ILMW,≤ 0.25
17,DSRK,≤ 0.25
18,MGWW,≤ 0.25
19,HTWW,≤ 0.25
20,NYCR,≤ 0.25
21,KGEW,≤ 0.25
22,WFIV,≤ 0.25
23,VVPP,≤ 0.25
24,NFNK,≤ 0.25

row,Variant,enrichment ratio
1,ISLM,12.9
2,EIVP,≤ 0.25
3,ADDH,≤ 0.25
4,WYYG,≤ 0.25
5,GSFT,≤ 0.25
6,TPIF,≤ 0.25
7,TFLA,4.85
8,LDGN,≤ 0.25
9,IAIH,≤ 0.25
10,MEDP,≤ 0.25
11,TKCP,≤ 0.25
12,NLTW,≤ 0.25
13,SQLG,19.1
14,HVNW,≤ 0.25
15,HGAY,≤ 0.25
16,QCSA,7.28
17,WDRN,≤ 0.25
18,HLGM,≤ 0.25
19,WTKP,≤ 0.25
20,MHWM,≤ 0.25
21,NHLT,≤ 0.25
22,MHPI,≤ 0.25
23,MEVV,2.27
24,MHSE,≤ 0.25

row,Variant,enrichment ratio
1,LHEG,≤ 0.25
2,YGNW,≤ 0.25
3,NFFI,≤ 0.25
4,LFPV,≤ 0.25
5,KWYL,≤ 0.25
6,WYGC,≤ 0.25
7,NYCK,≤ 0.25
8,KGLE,≤ 0.25
9,WLFV,≤ 0.25
10,KGSD,≤ 0.25
11,WNSL,≤ 0.25
12,ESLC,≤ 0.25
13,HDQS,≤ 0.25
14,THYQ,≤ 0.25
15,VCAL,7.03
16,PLIY,≤ 0.25
17,NVMY,≤ 0.25
18,KEMS,≤ 0.25
19,FSGA,≤ 0.25
20,VHCA,≤ 0.25
21,NRWP,≤ 0.25
22,WYNK,≤ 0.25
23,YSQS,≤ 0.25
24,VDQH,≤ 0.25

row,Variant,enrichment ratio
1,RYDP,≤ 0.25
2,AYAF,≤ 0.25
3,PRRW,≤ 0.25
4,YEVD,≤ 0.25
5,EDNK,≤ 0.25
6,MNIH,≤ 0.25
7,SFKS,≤ 0.25
8,ERFL,≤ 0.25
9,MMHK,≤ 0.25
10,MECV,18.2
11,TSPV,≤ 0.25
12,IDDM,≤ 0.25
13,FPKR,≤ 0.25
14,RMPG,≤ 0.25
15,IVGY,≤ 0.25
16,PRTC,≤ 0.25
17,MLDV,≤ 0.25
18,LLES,≤ 0.25
19,FIID,≤ 0.25
20,GTPW,≤ 0.25
21,ISKN,≤ 0.25
22,EGKY,≤ 0.25
23,KSWN,≤ 0.25
24,FRGN,≤ 0.25

row,Variant,enrichment ratio
1,IPPT,≤ 0.25
2,IDYL,≤ 0.25
3,QLNI,≤ 0.25
4,YSCI,2.62
5,DKFA,≤ 0.25
6,SDHH,≤ 0.25
7,KMNS,≤ 0.25
8,RNQC,≤ 0.25
9,SQNP,≤ 0.25
10,SIFN,0.521
11,WNST,≤ 0.25
12,ITRY,≤ 0.25
13,ANDI,≤ 0.25
14,LHWF,≤ 0.25
15,AVCC,8.73
16,EFHT,≤ 0.25
17,LGKE,≤ 0.25
18,ILYQ,≤ 0.25
